Reference: the supplement of paper PMC10369915
The list shows a part of the results. Rule as the data show it: active = 3.2 or more and inactive = the rest. Only a few entries rise above the background.

molecular target: SHP2 C-SH2 domain E139D; test: enrichment score (SH2-bound / input frequency) (ratio); bacterial display of known human phosphotyrosine sites (pTyr-Var adds point mutants) read by sequencing; higher = stronger binding; tyrosines were phosphorylated by kinases first; details: peptide library: pTyr-Var
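Also: displayed peptides selected on beads carrying the immobilized SH2 domain, with library peptides lacking any tyrosine serving as negative controls.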

Enrichment score, inactive:
QGLMPYGQPRP [SRRT_Y798] 0.772
CNNFIYGGCRG [SPINT2_Y163] 2.76
KDQPDYKYQPR [SOX9_Y172_H169Q] 0.704
SEKISYVYMKR [SSX7_Y48_L43S] 0.778
ADYPDYKYRPR [SOX11_Y116] 0.727
VQVAYYTVMMN [SPATA17_Y84_M86V] 2.55
KDHLDYKFQPR [SOX9_Y172_P170L_YF] 0.899
VGSEDYGWDLT [SPTAN1_Y1792_R1794W] 0.561
KHMADYPDCKF [SOX11_Y113_Y116C_YF] 0.894
KDQPDYKFQPR [SOX9_Y172_H169Q_YF] 0.785
QQLVAYFSKHA [SRC_Y232_YF] 1.09
KEAALYPHLLP [SQSTM1_Y383_P387L] 1.01
VQVAYYTMMMN [SPATA17_Y84] 2.31
KEAVLYPHLPP [SQSTM1_Y383_A381V] 0.916
NQDRTYFERVR [SPEN_Y632_S635R_YF] 0.636
TVQVAYYTMMM [SPATA17_Y83] 0.683
LDPIQYSKHPP [SQSTM1_Y433_T430P] 0.973
WSRAMYPDLGP [STARD8_Y330] 0.898

molecular target: SHP2 C-SH2 domain wild-type; test: as above; details: peptide library: pTyr-Var

Enrichment score, inactive:
QGLMPYGQPRP [SRRT_Y798] 0.637
CNNFIYGGCRG [SPINT2_Y163] 2.49
KDQPDYKYQPR [SOX9_Y172_H169Q] 0.541
SEKISYVYMKR [SSX7_Y48_L43S] 1.57
ADYPDYKYRPR [SOX11_Y116] 0.721
VQVAYYTVMMN [SPATA17_Y84_M86V] 2.42
KDHLDYKFQPR [SOX9_Y172_P170L_YF] 0.934
VGSEDYGWDLT [SPTAN1_Y1792_R1794W] 0.623
KHMADYPDCKF [SOX11_Y113_Y116C_YF] 1.2
KDQPDYKFQPR [SOX9_Y172_H169Q_YF] 0.74
QQLVAYFSKHA [SRC_Y232_YF] 1.14
KEAALYPHLLP [SQSTM1_Y383_P387L] 0.965
VQVAYYTMMMN [SPATA17_Y84] 2.42
KEAVLYPHLPP [SQSTM1_Y383_A381V] 0.801
NQDRTYFERVR [SPEN_Y632_S635R_YF] 0.564
TVQVAYYTMMM [SPATA17_Y83] 0.926
LDPIQYSKHPP [SQSTM1_Y433_T430P] 0.912
WSRAMYPDLGP [STARD8_Y330] 0.631

molecular target: SHP2 N-SH2 domain L43F; test: as above; details: peptide library: pTyr-Var

Enrichment score, inactive:
QGLMPYGQPRP [SRRT_Y798] 0.639
CNNFIYGGCRG [SPINT2_Y163] 2.6
KDQPDYKYQPR [SOX9_Y172_H169Q] 0.611
SEKISYVYMKR [SSX7_Y48_L43S] 0.791
ADYPDYKYRPR [SOX11_Y116] 0.763
VQVAYYTVMMN [SPATA17_Y84_M86V] 2.07
KDHLDYKFQPR [SOX9_Y172_P170L_YF] 0.995
VGSEDYGWDLT [SPTAN1_Y1792_R1794W] 0.775
KHMADYPDCKF [SOX11_Y113_Y116C_YF] 1.01
KDQPDYKFQPR [SOX9_Y172_H169Q_YF] 0.694
QQLVAYFSKHA [SRC_Y232_YF] 0.948
KEAALYPHLLP [SQSTM1_Y383_P387L] 1.07
VQVAYYTMMMN [SPATA17_Y84] 1.99
KEAVLYPHLPP [SQSTM1_Y383_A381V] 0.824
NQDRTYFERVR [SPEN_Y632_S635R_YF] 0.683
TVQVAYYTMMM [SPATA17_Y83] 0.567
LDPIQYSKHPP [SQSTM1_Y433_T430P] 1.12
WSRAMYPDLGP [STARD8_Y330] 0.655

molecular target: SHP2 N-SH2 domain T42A; test: as above; details: peptide library: pTyr-Var

Enrichment score, inactive:
QGLMPYGQPRP [SRRT_Y798] 0.549
CNNFIYGGCRG [SPINT2_Y163] 2.14
KDQPDYKYQPR [SOX9_Y172_H169Q] 0.63
SEKISYVYMKR [SSX7_Y48_L43S] 1.2
ADYPDYKYRPR [SOX11_Y116] 0.59
VQVAYYTVMMN [SPATA17_Y84_M86V] 1.94
KDHLDYKFQPR [SOX9_Y172_P170L_YF] 0.779
VGSEDYGWDLT [SPTAN1_Y1792_R1794W] 0.519
KHMADYPDCKF [SOX11_Y113_Y116C_YF] 0.94
KDQPDYKFQPR [SOX9_Y172_H169Q_YF] 0.701
QQLVAYFSKHA [SRC_Y232_YF] 1.06
KEAALYPHLLP [SQSTM1_Y383_P387L] 0.845
VQVAYYTMMMN [SPATA17_Y84] 1.87
KEAVLYPHLPP [SQSTM1_Y383_A381V] 0.655
NQDRTYFERVR [SPEN_Y632_S635R_YF] 0.56
TVQVAYYTMMM [SPATA17_Y83] 0.936
LDPIQYSKHPP [SQSTM1_Y433_T430P] 0.76
WSRAMYPDLGP [STARD8_Y330] 0.585

molecular target: SHP2 N-SH2 domain T52S; test: as above; details: peptide library: pTyr-Var

Enrichment score, inactive:
QGLMPYGQPRP [SRRT_Y798] 0.688
CNNFIYGGCRG [SPINT2_Y163] 2.54
KDQPDYKYQPR [SOX9_Y172_H169Q] 0.548
SEKISYVYMKR [SSX7_Y48_L43S] 0.876
ADYPDYKYRPR [SOX11_Y116] 0.741
VQVAYYTVMMN [SPATA17_Y84_M86V] 1.65
KDHLDYKFQPR [SOX9_Y172_P170L_YF] 0.839
VGSEDYGWDLT [SPTAN1_Y1792_R1794W] 0.605
KHMADYPDCKF [SOX11_Y113_Y116C_YF] 0.934
KDQPDYKFQPR [SOX9_Y172_H169Q_YF] 0.665
QQLVAYFSKHA [SRC_Y232_YF] 1.13
KEAALYPHLLP [SQSTM1_Y383_P387L] 0.778
VQVAYYTMMMN [SPATA17_Y84] 1.83
KEAVLYPHLPP [SQSTM1_Y383_A381V] 0.858
NQDRTYFERVR [SPEN_Y632_S635R_YF] 0.668
TVQVAYYTMMM [SPATA17_Y83] 0.611
LDPIQYSKHPP [SQSTM1_Y433_T430P] 0.897
WSRAMYPDLGP [STARD8_Y330] 0.654

molecular target: SHP2 N-SH2 domain wild-type; test: as above; details: peptide library: pTyr-Var

Enrichment score, inactive:
QGLMPYGQPRP [SRRT_Y798] 0.835
CNNFIYGGCRG [SPINT2_Y163] 2.23
KDQPDYKYQPR [SOX9_Y172_H169Q] 0.707
SEKISYVYMKR [SSX7_Y48_L43S] 0.712
ADYPDYKYRPR [SOX11_Y116] 0.67
VQVAYYTVMMN [SPATA17_Y84_M86V] 2.48
KDHLDYKFQPR [SOX9_Y172_P170L_YF] 0.849
VGSEDYGWDLT [SPTAN1_Y1792_R1794W] 0.606
KHMADYPDCKF [SOX11_Y113_Y116C_YF] 1.3
KDQPDYKFQPR [SOX9_Y172_H169Q_YF] 0.801
QQLVAYFSKHA [SRC_Y232_YF] 1.24
KEAALYPHLLP [SQSTM1_Y383_P387L] 1.12
VQVAYYTMMMN [SPATA17_Y84] 2.03
KEAVLYPHLPP [SQSTM1_Y383_A381V] 1.03
NQDRTYFERVR [SPEN_Y632_S635R_YF] 0.823
TVQVAYYTMMM [SPATA17_Y83] 1.33
LDPIQYSKHPP [SQSTM1_Y433_T430P] 1.13
WSRAMYPDLGP [STARD8_Y330] 0.86
